From publication PMC3656048
These are yes or no findings as the source states them, for the method shown. Binding seen in cells or lysates may run through a third protein. Some entries that bind do so weakly or less than the wild type.

Chains of the proteins cited; added tags and fusions are not shown. Residues count along the entry.
UniProt P34971: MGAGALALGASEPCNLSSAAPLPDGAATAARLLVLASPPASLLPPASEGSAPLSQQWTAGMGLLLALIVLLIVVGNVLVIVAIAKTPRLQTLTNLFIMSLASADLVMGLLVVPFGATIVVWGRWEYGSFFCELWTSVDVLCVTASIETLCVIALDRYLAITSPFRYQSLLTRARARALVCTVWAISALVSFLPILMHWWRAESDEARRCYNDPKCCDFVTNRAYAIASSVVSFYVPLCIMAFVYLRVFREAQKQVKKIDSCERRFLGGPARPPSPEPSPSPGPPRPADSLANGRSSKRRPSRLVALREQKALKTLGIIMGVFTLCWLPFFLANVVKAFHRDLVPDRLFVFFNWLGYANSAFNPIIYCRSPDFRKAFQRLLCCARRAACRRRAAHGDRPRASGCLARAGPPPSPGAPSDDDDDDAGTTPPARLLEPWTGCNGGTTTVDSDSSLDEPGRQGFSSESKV
UniProt P08588: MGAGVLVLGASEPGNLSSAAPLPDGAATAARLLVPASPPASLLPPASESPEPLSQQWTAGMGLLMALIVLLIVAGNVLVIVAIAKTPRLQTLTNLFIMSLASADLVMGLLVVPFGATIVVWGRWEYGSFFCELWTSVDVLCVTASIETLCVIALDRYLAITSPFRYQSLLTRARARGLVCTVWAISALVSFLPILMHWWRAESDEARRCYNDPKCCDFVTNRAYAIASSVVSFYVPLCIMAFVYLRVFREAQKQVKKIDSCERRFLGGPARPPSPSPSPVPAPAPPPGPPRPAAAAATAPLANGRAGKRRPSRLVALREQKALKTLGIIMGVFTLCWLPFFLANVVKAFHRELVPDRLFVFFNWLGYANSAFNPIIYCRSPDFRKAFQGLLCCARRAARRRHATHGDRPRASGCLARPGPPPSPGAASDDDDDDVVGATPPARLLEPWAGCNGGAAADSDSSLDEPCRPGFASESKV
UniProt Q811D0: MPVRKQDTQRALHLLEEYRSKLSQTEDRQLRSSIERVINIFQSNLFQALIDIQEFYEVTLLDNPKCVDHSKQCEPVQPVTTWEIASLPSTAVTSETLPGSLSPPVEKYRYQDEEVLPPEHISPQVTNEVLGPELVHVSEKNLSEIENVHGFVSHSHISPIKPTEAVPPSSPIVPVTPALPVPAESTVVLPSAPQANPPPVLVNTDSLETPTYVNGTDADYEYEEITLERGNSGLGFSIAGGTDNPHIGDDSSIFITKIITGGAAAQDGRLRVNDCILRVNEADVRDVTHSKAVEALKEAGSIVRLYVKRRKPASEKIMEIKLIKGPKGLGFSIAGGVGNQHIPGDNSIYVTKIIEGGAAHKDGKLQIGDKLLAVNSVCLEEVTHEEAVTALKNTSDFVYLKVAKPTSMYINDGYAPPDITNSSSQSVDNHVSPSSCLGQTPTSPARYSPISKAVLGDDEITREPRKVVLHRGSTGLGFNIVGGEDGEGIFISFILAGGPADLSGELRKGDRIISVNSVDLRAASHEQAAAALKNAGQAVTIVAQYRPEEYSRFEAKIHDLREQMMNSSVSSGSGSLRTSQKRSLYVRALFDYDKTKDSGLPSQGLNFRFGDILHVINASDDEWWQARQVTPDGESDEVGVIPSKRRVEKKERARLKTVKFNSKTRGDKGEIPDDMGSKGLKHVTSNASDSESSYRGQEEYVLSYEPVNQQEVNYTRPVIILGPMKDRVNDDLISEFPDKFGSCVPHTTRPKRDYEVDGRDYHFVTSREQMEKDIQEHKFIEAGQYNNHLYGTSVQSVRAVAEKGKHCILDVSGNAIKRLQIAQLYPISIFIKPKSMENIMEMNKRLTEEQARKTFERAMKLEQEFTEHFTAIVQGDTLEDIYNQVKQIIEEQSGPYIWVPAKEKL
UniProt P19490, residues 19-907: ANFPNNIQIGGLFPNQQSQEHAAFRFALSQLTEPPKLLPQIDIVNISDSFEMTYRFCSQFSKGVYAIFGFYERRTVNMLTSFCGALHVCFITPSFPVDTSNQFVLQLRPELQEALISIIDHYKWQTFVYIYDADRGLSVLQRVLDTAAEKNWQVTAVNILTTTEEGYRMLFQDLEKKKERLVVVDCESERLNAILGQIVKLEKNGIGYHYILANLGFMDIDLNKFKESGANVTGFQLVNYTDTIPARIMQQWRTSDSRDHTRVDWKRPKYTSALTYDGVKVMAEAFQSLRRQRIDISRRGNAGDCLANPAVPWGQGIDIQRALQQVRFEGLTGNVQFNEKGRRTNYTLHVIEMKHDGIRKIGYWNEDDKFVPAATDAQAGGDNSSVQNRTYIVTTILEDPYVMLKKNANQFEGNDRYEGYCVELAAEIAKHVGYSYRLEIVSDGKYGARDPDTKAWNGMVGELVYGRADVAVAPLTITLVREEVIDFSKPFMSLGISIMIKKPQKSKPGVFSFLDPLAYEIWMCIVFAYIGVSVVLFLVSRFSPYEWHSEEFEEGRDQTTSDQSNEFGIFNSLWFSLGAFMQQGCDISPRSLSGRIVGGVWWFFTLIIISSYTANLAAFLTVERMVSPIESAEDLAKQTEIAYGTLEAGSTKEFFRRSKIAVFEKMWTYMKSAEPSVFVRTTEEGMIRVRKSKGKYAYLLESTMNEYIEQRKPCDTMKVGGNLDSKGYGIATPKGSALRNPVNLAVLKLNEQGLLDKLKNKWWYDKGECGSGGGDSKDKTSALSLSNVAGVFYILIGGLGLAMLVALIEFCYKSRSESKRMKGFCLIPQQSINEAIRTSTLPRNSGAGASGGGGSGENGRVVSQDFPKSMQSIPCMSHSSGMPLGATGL
UniProt P18090: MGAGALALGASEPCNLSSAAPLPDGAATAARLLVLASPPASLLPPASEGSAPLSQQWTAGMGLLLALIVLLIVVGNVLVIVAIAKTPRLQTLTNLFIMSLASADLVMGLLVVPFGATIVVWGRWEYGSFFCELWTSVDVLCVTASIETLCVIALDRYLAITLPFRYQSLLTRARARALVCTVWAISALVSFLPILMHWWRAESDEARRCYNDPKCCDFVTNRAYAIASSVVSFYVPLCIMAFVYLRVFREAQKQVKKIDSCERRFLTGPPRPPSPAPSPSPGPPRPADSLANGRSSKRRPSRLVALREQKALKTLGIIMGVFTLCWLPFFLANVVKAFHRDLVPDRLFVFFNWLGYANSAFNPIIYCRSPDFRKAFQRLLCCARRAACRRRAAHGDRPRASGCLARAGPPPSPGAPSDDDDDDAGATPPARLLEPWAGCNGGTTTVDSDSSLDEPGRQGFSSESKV

Columns and labels:
[1] = target: HA-tagged mouse ß1-AR (mouse) (UniProt P34971); test: co-IP; mouse neonatal cardiac myocytes infected with adenovirus for HA-tagged ß1-AR; RIPA lysate on anti-HA affinity beads 24 h at 4°C; blots for SAP97, ß1-AR and AKAP150
[2] = target: full length WT FLAG ß1-AR (human) (UniProt P08588); test: co-IP; HEK-293 cells stably expressing FLAG ß1-AR and hSAP97 shRNA, transfected with rat SAP97 constructs; RIPA lysates on anti-FLAG M2 resin; blot with anti-SAP97 or anti-pan PDZ antibody
[3] = target: SAP97 (rat hippocampal membranes) (rat (endogenous in hippocampus)) (UniProt Q62696); test: co-IP; RIPA lysates of crude rat hippocampal membranes incubated with anti-SAP97 IgG (1:200) or mouse IgG 16 h at 4°C, protein G-agarose; blots for GluR1 and ß1-AR
[4] = target: full length WT FLAG ß1-AR (human) (UniProt P08588); test: co-IP; in vitro interference: extract of cells co-expressing FLAG ß1-AR and SAP97-YFP mixed with 2.5 µg purified GST or 3.2 µg GST-PDZ in 1 ml (0.1 µM); FLAG IP probed with anti-SAP97
[5] = target: full length WT FLAG ß1-AR (human) (UniProt P08588); test: co-IP; in vivo interference: HEK-293 cells stably expressing FLAG ß1-AR and SAP97-YFP transfected with empty pIRES or an individual SAP97 PDZ in pIRES-EGFP; FLAG IP probed with anti-SAP97 (n = 3)

binding [2]	binding [3]	Substance	also measured
–	–	SAP97 (mouse cardiac myocytes) (from UniProt Q811D0 1-905)	binding [1]: binds
binds	–	full-length rSAP97 in pIRES-EGFP (from UniProt Q62696 1-911)	–
no binding	–	K323A/K326A rSAP97-YFP (from UniProt Q62696 1-911)	–
–	binds	GluR1 subunit of AMPA receptors (from UniProt P19490 19-907)	–
–	binds	ß1-AR (rat hippocampal membranes) (from UniProt P18090 1-466) (receptor)	–
binds	–	WT rSAP97-YFP (from UniProt Q62696 1-911)	binding [4]: binds; binding [5]: binds
